Assay results taken from the RNAGym collection of RNA variant scans (doi:10.1093/nar/gkz1192).
Read counts are not given, so values of variants with three or more changes are uncertain.

B1: CPEB3 Ribozyme (parent)
chain: UAACAGGGGGCCACAGCAGAAGCGUUCACGUCGCAGCCCCUGUCAGAUUCUGGUGAAUCUGCGAAUUCUGCUGUAUAUCUC

Variants of: B1
Test: self-cleavage, relative activity (ratio to wild type); higher = more cleavage; in vitro, sequencing
Outline: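 Barcoded CPEB3 ribozyme mutants, produced by rounds of error-prone PCR, self-cleaved while being transcribed with T7 RNA polymerase for 5 hours at 37°C and during a subsequent 15 min DNase I step before EDTA was added. Sequencing of template-switched cDNA on Illumina gave cleaved and total reads, and DNA sequencing assigned barcodes to variants. Each variant's relative activity is its cleaved/total read fraction divided by the unmutated ribozyme's fraction, averaged across three batches. A variant needed a minimum of 5 reads.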

Question: For A15U A28G C37U A45G A47G G52C, which self-cleavage is on record?
Answer: 0.04

Question: With G16U U49C C50U A56U U74A U76C as the variant, how does the self-cleavage read?
Answer: 0.16

Question: For A15U C29G U31A U49C A65U U67A U78C, which self-cleavage is on record?
Answer: 0.06

Question: For A15U A18G A56U, which self-cleavage is on record?
Answer: 0.19

Question: For C17A A18G A21G U31C U43C, which self-cleavage is on record?
Answer: 0.04

Question: For A15G U31A U41C A45G, which self-cleavage is on record?
Answer: 0.23

Question: With G16U U43C U58C U67C U72C as the variant, how does the self-cleavage read?
Answer: 0.06

Question: For A15G U43C U60A, which self-cleavage is on record?
Answer: 0

Question: With G16A U31A C38U A47U U51G U66C as the variant, how does the self-cleavage read?
Answer: 0.05

Question: For A15U C38U A56U, which self-cleavage is on record?
Answer: 0.31

Question: With A15U A21G U25A U49C as the variant, how does the self-cleavage read?
Answer: 0.16

Question: For A15G U54A U69A, which self-cleavage is on record?
Answer: 0.3

Question: Which self-cleavage does the source give for C17A G63A U72C U78C here?
Answer: 0.06

Question: For G16A U26A A47G U51A, which self-cleavage is on record?
Answer: 0.13

Question: For G16U C37G U54C U67C, which self-cleavage is on record?
Answer: 0.07

Question: With G16A U31A C38G U69A as the variant, how does the self-cleavage read?
Answer: 0.16

Question: With A15U U60A U69C as the variant, how does the self-cleavage read?
Answer: 0.11

Question: Which self-cleavage does the source give for A15U G24A U43A A56G G63U G70A here?
Answer: 0.06

Question: For G16A U31C U43A U80C, which self-cleavage is on record?
Answer: 0.64

Question: With A15G U51A U54G U74A U76A as the variant, how does the self-cleavage read?
Answer: 0.88

Question: Which self-cleavage does the source give for A15G U41C U49C U67C here?
Answer: 0.05

Question: Which self-cleavage does the source give for A15G U48C U76A here?
Answer: 0.21

Question: For A15G U41A U60C, which self-cleavage is on record?
Answer: 0.25

Question: With G16A U49A A65G U67A as the variant, how does the self-cleavage read?
Answer: 0.31

Question: Which self-cleavage does the source give for A15U U25C A45U A47G A57C here?
Answer: 0.14

Question: For A15U U48C U51A, which self-cleavage is on record?
Answer: 0.49

Question: For A15U A21G A35G U51C U54C A57G C79U, which self-cleavage is on record?
Answer: 0.42

Question: Which self-cleavage does the source give for A15G U26C U51A U80G here?
Answer: 0.36

Question: Which self-cleavage does the source give for A15U A18G U67A A75U here?
Answer: 0.19

Question: For A15U A18U A28G A47U U49C U69C C71U, which self-cleavage is on record?
Answer: 0.07

Question: With G16A A21G U43A U72A as the variant, how does the self-cleavage read?
Answer: 0.2

Question: For A15U C38A U48C U69C, which self-cleavage is on record?
Answer: 0.05

Question: With A15U G46A G52U as the variant, how does the self-cleavage read?
Answer: 0.23

Question: For A15G U25G U80A, which self-cleavage is on record?
Answer: 0.43

Question: For A15G U26C A35C, which self-cleavage is on record?
Answer: 0.34

Question: For A15U G36A A64G, which self-cleavage is on record?
Answer: 0.17

Question: For A15G U26A G33A U48C A57G, which self-cleavage is on record?
Answer: 0.07

Question: Which self-cleavage does the source give for A15U U41C A65G U74A here?
Answer: 0.65

Question: For A15U U41C U60A U67C, which self-cleavage is on record?
Answer: 0.3

Question: Which self-cleavage does the source give for A15U A18G U60C here?
Answer: 0.17

Question: With A15U U48C A57G U69A U80C as the variant, how does the self-cleavage read?
Answer: 0.38

Question: With A15U U41A U49A A57G U66C U72C as the variant, how does the self-cleavage read?
Answer: 0.09

Question: With A15U G16A U25C G73A as the variant, how does the self-cleavage read?
Answer: 0.06

Question: For G16A A18G A28G, which self-cleavage is on record?
Answer: 0.08

Question: Which self-cleavage does the source give for A15G U26A A28G U54C G70U here?
Answer: 0.07

Question: For A15U G33C U54G, which self-cleavage is on record?
Answer: 0.14

Question: For G16U U41C A45G G52A A65G U69G, which self-cleavage is on record?
Answer: 0.16

Question: For A15U C39U U67C U78A, which self-cleavage is on record?
Answer: 0.21

Question: Which self-cleavage does the source give for A15G U26C A35G U51C U69C U80C here?
Answer: 0.17

Question: Which self-cleavage does the source give for A15G U49C U54A U74A here?
Answer: 0.27

Question: With G16U G36U U72C as the variant, how does the self-cleavage read?
Answer: 0.09

Question: With A15U G63U U74C as the variant, how does the self-cleavage read?
Answer: 1.24

Question: With A15U A21G C27G U54G U60A as the variant, how does the self-cleavage read?
Answer: 0.14

Question: For A15U A45U U49C U72C, which self-cleavage is on record?
Answer: 0.08

Question: With A15U A18G A35G A56U as the variant, how does the self-cleavage read?
Answer: 0.34

Question: With A15G U49A U54C as the variant, how does the self-cleavage read?
Answer: 0.35

Question: Which self-cleavage does the source give for A15U G33A U49A here?
Answer: 0.27

Question: For A15U G52C A57G U60A U67C, which self-cleavage is on record?
Answer: 0.06

Question: Which self-cleavage does the source give for A15G U48C A64G here?
Answer: 0.21

Question: For A15U U26A A65U, which self-cleavage is on record?
Answer: 0.22

Question: With G16A A56U G70C as the variant, how does the self-cleavage read?
Answer: 0.11

Question: Which self-cleavage does the source give for A15U C40U U60A here?
Answer: 0.11

Question: With G16U C23U U26C U41C U72C as the variant, how does the self-cleavage read?
Answer: 0.08

Question: Which self-cleavage does the source give for A15G U43G A45U here?
Answer: 0.1

Question: Which self-cleavage does the source give for A15G U31A A35G U51G U67A here?
Answer: 0.62

Question: With A15U U26C A56U as the variant, how does the self-cleavage read?
Answer: 0.4

Question: Which self-cleavage does the source give for A15U C40U G63A A75G U80C here?
Answer: 0.15

Question: With A15U U26C U66C U74A as the variant, how does the self-cleavage read?
Answer: 0.06

Question: Which self-cleavage does the source give for A15G U67C U69A here?
Answer: 0.17

Question: With A15U A56C U58C U69C A75G U76C as the variant, how does the self-cleavage read?
Answer: 0.42

Question: With A15G U49C G73C U74A as the variant, how does the self-cleavage read?
Answer: 0.33

Question: Which self-cleavage does the source give for A15U G19U A28C A56G G63U here?
Answer: 0.12

Question: With A15G U67C C81U as the variant, how does the self-cleavage read?
Answer: 0.18

Question: With G16A A28G C32U U43C as the variant, how does the self-cleavage read?
Answer: 0.21

Question: Which self-cleavage does the source give for A15G U31C C38A U43C U60A here?
Answer: 0.13

Question: With A15U G33A A57C as the variant, how does the self-cleavage read?
Answer: 0.25

Question: Which self-cleavage does the source give for A15U A35G C39A U72C here?
Answer: 0.93

Question: With G16A A56G U67C as the variant, how does the self-cleavage read?
Answer: 0.09

Question: For A15U U31C G42C A64G U66C, which self-cleavage is on record?
Answer: 0.12

Question: With A15U U25A U26C as the variant, how does the self-cleavage read?
Answer: 0.4

Question: For G16C A45G U60C G63A, which self-cleavage is on record?
Answer: 0.21

Question: Which self-cleavage does the source give for A15U A18G U51C A64G here?
Answer: 0.12

Question: With G16C U25A U49C as the variant, how does the self-cleavage read?
Answer: 0.11

Question: With A15G U41A A64U U78C as the variant, how does the self-cleavage read?
Answer: 0.18
